Measurements reported in PubChem BioAssay AID1745853 (National Center for Advancing Translational Sciences (NCATS), 2022).
The other results are listed elsewhere or left out. The main result of the screen is listed elsewhere. These columns were measured beside it and carry no call.

Key:
Experiment in all cases: Primary Screen for Target Class Profiling of Small Molecule Inhibitors of Methyltransferases
[1] = target: Glycine N-methyltransferase (Homo sapiens) (UniProt Q14749); conditions: purified enzyme, MTase-Glo SAH luminescence; measured here: GNMT inhibition; at 40 µM; stronger effect = lower value
Outline: (§1)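 Each enzyme was assayed with SAM and its substrate. SAH formation detected by MTase-Glo luminescence; single-point 40 uM screen[…].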

[2] = target: Guanidinoacetate N-methyltransferase (Homo sapiens) (UniProt Q14353); conditions: purified enzyme, MTase-Glo SAH luminescence; measured here: GAMT inhibition; at 40 µM; stronger effect = lower value
Outline: as §1

[3] = target: Histamine N-methyltransferase (Homo sapiens) (UniProt P50135); conditions: purified enzyme, MTase-Glo SAH luminescence; measured here: HNMT inhibition; at 40 µM; stronger effect = lower value
Outline: as §1

[4] = target: Nicotinamide N-methyltransferase (Homo sapiens) (UniProt P40261); conditions: purified enzyme, MTase-Glo SAH luminescence; measured here: NNMT inhibition; at 40 µM; stronger effect = lower value
Outline: as §1

[5] = target: Phenylethanolamine N-methyltransferase (Homo sapiens) (UniProt P11086); conditions: purified enzyme, MTase-Glo SAH luminescence; measured here: PNMT inhibition; at 40 µM; stronger effect = lower value
Outline: as §1
% is scaled to controls: 0 for no effect and ±100 for the full control effect.

Row | Structure (SMILES) | activity change, negative = inhibition [1] [%] | activity change, negative = inhibition [2] [%] | activity change, negative = inhibition [3] [%] | activity change, negative = inhibition [4] [%] | activity change, negative = inhibition [5] [%]
1 | C[S+](=O)([O-])N1C2CCC1CN(c1ccc(C(F)(F)F)cc1)C2 | -3.62 | -0.796 | 0.2 | -5.6 | 7.23
2 | CC1(C(=O)NC2CCCC2)Cn2c(ccc2-c2ccco2)C(=O)N1Cc1cccc(Br)c1 (stereo not given) | -13.4 | -4.18 | -6.1 | -17.7 | -7.97
3 | Cn1nc(N2CCC(NC(=O)c3ncccn3)CC2)ccc1=O | -2.62 | 1.76 | 0.465 | -2.42 | -1.8
4 | CN1C[C@H](C(=O)Nc2ccccc2)C[C@H]1c1cccc(C(F)(F)F)c1 | -5.37 | -3.23 | 0.949 | -11.3 | -30
5 | CCOc1ccc2c(-c3ccccc3)cc(=O)oc2c1 | -7.19 | 0 | 5.37 | -20.3 | -13.4
6 | COc1ccc(C(C)NC(=O)c2ccc(Cn3ccn4nc5c(c4c3=O)CCCC5)cc2)cc1OC (stereo not given) | -19.7 | -3.12 | -0.886 | -30.9 | 0.732
7 | CCOc1ccccc1CN1C(=O)c2cc3occc3n2CC1(C)C(=O)NC1CCC(C)CC1 (stereo not given) | 3.19 | 1.43 | 6.1 | 5.78 | 4.29
8 | CC(=O)N1CCC2(C1)N=C(c1ccccn1)C(=O)N2 (stereo not given) | -5.89 | -6.29 | -1.37 | -9.11 | -10
9 | O=C(c1ccc2c(=O)nc3c(-c4ccc(F)cc4)n[nH]n3c2c1)N1CCN(c2ccccc2)CC1 | 0.323 | 3.31 | -2.23 | 2.07 | -0.614
10 | CC1CCCN(c2nc3c(S(=O)(=O)c4ccccc4)nnn3c3ccc(Cl)cc23)C1 (stereo not given) | -5.79 | 1.43 | -4.27 | 1.09 | -9.13
11 | CC1(C(=O)O)CCCC2(C)C3CC4C5CC3(CCC12)CC45C (stereo not given) | -16.1 | -11.9 | 1.9 | -41.6 | -10.1
12 | CCOCCCNC(=O)CCc1nnc2n(Cc3ccc(F)cc3)c(=O)c3ccccc3n12 | -9.07 | -0.519 | -0.444 | -0.927 | -9.76
13 | Cc1ccc(NC(=O)N2CCc3c(c4ccccc4n3CC3CC3)C2)cc1 | -20.5 | -12.5 | -65.5 | -21.6 | -19.5
14 | CCC1c2ccc(C)n2CCN1C(=O)Nc1cc(C)cc(C)c1 (stereo not given) | -4.21 | 4.08 | -0.435 | 5.2 | -2.23
15 | O=C(NCc1ccncc1)C(=O)NCC(c1cccnc1)N1CCN(c2ccccc2)CC1 (stereo not given) | -4.66 | -5.88 | 9.61 | -2.3 | -2.69
16 | C/C=C1/[C@H](O[C@@H]2O[C@H](CO)[C@@H](O)[C@H](O)[C@H]2O)OC=C2C(=O)O[C@@H]3C[C@@H](C(C)CO)[C@H](COC(=O)C[C@H]21)[C@H]3C (stereo not given in full) | 1.22 | 4.32 | 8.21 | -9.13 | 5.55
17 | Cc1ccc2nc(Nc3ccc4c(c3)n(C)c(=O)n4C)c(-n3nc(C)cc3C)nc2c1 | -2.2 | 1.23 | -4.87 | 4.1 | -11.3
18 | Cc1ccc(N2CCN(S(=O)(=O)c3ccc4[nH]c5c(c4c3)CCCC5)CC2)c(C)c1 | 5.41 | 0.278 | 1.49 | 3.88 | 3.24
19 | CNC(=O)[C@@H](C1CCCCC1)N1CCC[C@H]1C(=O)NCCN1CCOCC1 | -7.22 | -9.69 | -4.33 | -11.6 | 6.25
20 | CC(C#N)C(C)O[C@@H]1O[C@H](CO)[C@@H](O)[C@H](O)[C@H]1O (stereo not given in full) | 4.89 | 5.7 | 12.1 | -5.89 | 6.43
21 | C=C1C(OC(=O)/C(C)=C\C)[C@@]23CCC4[C@@](C)(CCC[C@@]4(C)C(=O)O)C2CC[C@H]1C3OC(C)=O (stereo not given in full) | -1 | -7.68 | 0.983 | -20.5 | -2.48
22 | CCC1c2ccc(C)n2CCN1C(=O)Nc1cc(Cl)ccc1C (stereo not given) | -1.8 | 3.94 | -5.11 | -14.5 | -4.27
23 | CCCn1c(=O)c2cc(Cl)ccc2n2c(=O)n(CC(=O)N3CCN(c4ccc(F)cc4)CC3)nc12 | -2.92 | 1.44 | 4.31 | -7.84 | -1.91
24 | O=C(Cc1cccs1)N1CCOc2ccc(CN3CCCCC3)cc2C1 | -8.05 | -7.03 | -37.7 | -13.2 | -10.3
25 | CCS(=O)(=O)N1CC(F)(F)C[C@H]1c1nc(-c2cccnc2)no1 | -2.12 | -1.29 | 1.17 | -10.2 | -3.25
26 | NC1Nc2ccccc2C1(N)CC1NC(=O)C(Cc2ccccc2)NC(=O)C(Cc2ccccc2)NC1=O (stereo not given) | 2.67 | 4.09 | 3.42 | -9.55 | -3.54
27 | CN(C)C[C@H]1C[C@@H](CO)CN(C(=O)c2ccccc2-c2ccc(F)cc2)C1 | -2.79 | -5.2 | -1.4 | -6.26 | -18.3
28 | C=C1CC[C@@]2(OC1)O[C@H]1CC3[C@@H]4CC=C5C[C@@H](O)C[C@@H](O[C@@H]6OC[C@H](O)[C@H](O)[C@H]6O[C@@H]6O[C@@H](C)[C@H](O)[C@@H](O)[C@H]6O)[C@]5(C)C4CC[C@]3(C)[C@H]1[C@@H]2C (stereo not given in full) | 0 | 10.1 | -0.804 | -3.64 | 6.31
